# Test results reported in PubChem BioAssay AID1508624 (National Center for Advancing Translational Sciences (NCATS), 2021).
# The whole screen tested about 48,000 compounds, of which about 120 (0.25%) were called active. About 4% were inconclusive and are not listed. The call rests on the fitted dose curve; in most records, active means well fitted activation curve with a large enough effect; inconclusive means small, poorly fitted or top-dose-only effect, or another doubt; inactive means no such curve, though single readings can be large or run the other way. The list shows a part of the results.
# Test: Primary qHTS for Identification of Small Molecule Activators of Huntingtin-Antisense Promoter Activity; further: nearly all actives have a fitted effect of over 55% in size
# Details: HEK293 HTT-AS promoter firefly luciferase reporter (activity 0% = vehicle and -100% = no light), 24 h; series mostly up to 57.5 µM; activity change, positive = activation: at the top concentration
# Text: Assay Provider: Russell L. Margolis M.D.
# Department Neurology, Johns Hopkins University School of Medicine, Baltimore, MD
# Huntington's Disease (HD) is a neurodegenerative disorder caused by a CAG repeat expansion in exon 1 of huntingtin (HTT). While there are currently no disease-modifying treatments for HD, recent efforts have focused on development of nucleotide-based therapeutics to lower HTT expression. As an alternative to siRNA or oligonucleotide methods, we hypothesized that suppression of HTT expression might be accomplished by small molecules that either (1) directly decrease HTT expression by suppressing HTT promoter activity or (2) indirectly decrease HTT expression by increasing the promoter activity of HTT-AS, the gene antisense to HTT that appears to inhibit expression of HTT.
# We developed and employed a high throughput screen for modifiers of HTT and HTT-AS promoter activity using luminescent reporter HEK293 cells; of the 52,041 compounds tested, we identified 898 replicable hits. We used a rigorous stepwise approach to assess compound toxicity and the capacity of the compounds to specifically lower huntingtin protein in 5 different cell lines, including HEK293 cells, HD lymphoblastoid cells, mouse primary neurons, HD iPSCs differentiated into cortical-like neurons, and HD hESCs. We found no compounds which were able to lower huntingtin without lowering cell viability in all assays, though the potential efficacy of a few compounds at non-toxic doses could not be excluded.
# SEQUENCE No. (1, 2, 3, etc.); […] (e.g., Cells, Incubation, Reagent, etc.); VALUE and DESCRIPTION.
# 1; Reagent; 4 uL; 2,500 Hek293 luciferase reporter cells per wells
# 3; Compound; 23 nL; Control inhibitor / compound library
# 5; Reagent; 2.5 uL; Firefly Luc reagent; Dual-Glo Luciferase Reporter Assay System (Promega)
# 6; Time; 10 min; room temperature incubation
# 7; Detection; Luminescence; FLuc
# NOTES (numbers refer to sequence above)
# 1; High-throughput screening, measuring luminescence from a Hek293 luciferase reporter, was performed in 1,536 well white-walled tissue-culture treated plates. 2,500 cells were plated in 4 µL of Opti-MEM per well using a Multidrop Combi Reagent Dispenser (ThermoFisher).
# 2; Assay plates were cultured for 24 hours.
# 3; Control inhibitor (PTC124; final concentration of 50 uM) and compound library (at final concentrations of 460 nM - 57.5 uM) were added to the assay plate using the Kalypsis Pintool Robotic System equipped with 1536 pinheads.
# 4; Cells were then incubated for 24 hours at 37 degrees C prior to luminescence measurements.
# 5; In all cases, luminescence was measured using the Dual-Glo Luciferase Reporter Assay System (Promega) following the manufacturer's instructions.
# 6; Room temperature incubation.
# 7; Luminescence signal was obtained using the PerkinElmer ViewLux plate reader. Results were normalized to vehicle control (0% activity) and zero RLU (-100% activity).
row,SMILES,"activity change, positive = activation"
1,CCOc1ccc(-c2cc3nc(C4CCN(C(=O)OC(C)(C)C)CC4)c(C(=O)Nc4ccc(C)c(F)c4)cn3n2)cc1,inactive: -8.58%
2,CC(C)CCNC(=O)c1cn(C)c2ccc(S(=O)(=O)N3CCCC3)cc2c1=O,inactive: 4.28%
3,Cc1ccccc1OCc1cc(=O)n2c(-c3ccccc3)csc2n1,inactive: -3.03%
4,CCn1cc(C(=O)N2CCN(c3cc(Cl)ccc3C)CC2)c(=O)c2cc(S(=O)(=O)N3CCOCC3)ccc21,inactive: -21.5%
5,CCC(=O)N1CCc2cc(Br)cc(S(=O)(=O)N3CCC(C(=O)N(CC)CC)CC3)c21,inactive: -4.9%
6,Cc1cccc(NC(=O)CSC2=Nc3ccccc3C3=NC(CCC(=O)NCc4ccc(F)cc4)C(=O)N23)c1 (configuration not stated),inactive: -13.9%
7,O=C(NCCc1ccc(Cl)cc1)c1ccc(Cn2c(=O)[nH]c3ccccc3c2=O)cc1,inactive: -11.9%
8,CC(=O)c1cccc(Nc2ncnc3c2cnn3C)c1,inactive: -0.227%
9,CCOc1ccccc1NC(=O)Cc1csc(COc2cccc(C)c2)n1,inactive: -17.6%
10,Cc1ccc(-n2c3c(c(=O)[nH]c2=O)C(NS(=O)(=O)c2ccc(C)cc2)(C(F)(F)F)C(=O)N3)cc1 (configuration not stated),inactive: -5.24%
11,CCOc1ccc(CN2C(=O)c3ccccc3Sc3ccc(C(=O)NCCc4ccccc4)cc32)cc1,inactive: -5.64%
12,COc1ccc2[nH]cc(CCNC(=O)Nc3cccc(F)c3)c2c1,inactive: -17.3%
13,CC1CCN(S(=O)(=O)c2ccc(C(=O)Nc3nc4ccc(F)cc4s3)cc2)CC1,inactive: -23.8%
14,COC(=O)c1c(NC(=O)COc2c(C)cccc2C)sc2c1CCCC2,inactive: -29.9%
15,CCOc1ccccc1NC(=O)c1cc2cc(C)ccc2n1C,inactive: -18.2%
16,COc1ccccc1CNC(=O)C1CCCN(C(=O)c2cnn(-c3ccc(F)cc3)c2-n2cccc2)C1 (configuration not stated),inactive: -11.9%
17,Cc1ccc(NC(=O)C(Cc2ccccc2)n2cccc2)cc1 (configuration not stated),inactive: -9.86%
18,COCCCn1c(=O)c2sccc2n2c(CCCC(=O)Nc3cc(C)cc(C)c3)nnc12,inactive: -1.36%
19,COc1ccc(CNC(=O)Cn2ncc3c4ccccc4n(Cc4cccc(Cl)c4)c3c2=O)cc1,inactive: -11%
20,OCCN1CCN(CCCN2c3ccccc3Sc3ccc(C(F)(F)F)cc32)CC1,inactive
21,CC(C)(Oc1ccc(CCNC(=O)c2ccc(Cl)cc2)cc1)C(=O)O,inactive: 2.36%
22,COc1ccc(OC)c(NCc2cccn2-c2nnc(N3CCCCC3)s2)c1,inactive: -34%
23,Cc1ccc(C)c(S(=O)(=O)c2cn(C)c3cc(N4CCCCC4C)c(F)cc3c2=O)c1 (configuration not stated),inactive: -13.4%
24,COc1ccc(C)cc1NC(=O)c1ccc2c(=O)n3c(nc2c1)CCCCC3,inactive: -14.1%

row,SMILES,"activity change, positive = activation"
1,c1ccc(CC2=NCCN2)cc1,inactive: 32.6%
2,Cc1cccc(-c2nc3c4ccccc4nc(N4CCN(c5ccccc5F)CC4)n3n2)c1,inactive: -1.53%
3,Cc1ccc(CNC(=O)NCc2noc3ccc(C)cc23)cc1,inactive: -8.68%
4,COc1ccc(C(=O)NCCn2cc(SCC(=O)Nc3ccc(C)cc3)c3ccccc32)cc1,inactive: -27.7%
5,Cn1c(=O)c2c(-c3ccc(Cl)cc3)n(Cc3ccc(Cl)cc3)cc2n(C)c1=O,inactive: -15.4%
6,CCC1CCCCN1CCCNC(=O)c1[nH]c2ccccc2c1Sc1ccc(Cl)cc1 (configuration not stated),inactive: -8.5%
7,CCOc1ccc(C(c2c(O)cc(C)n(CCOC)c2=O)N2CCN(c3ccccc3)CC2)cc1 (configuration not stated),inactive: -10.5%
8,COc1cccc(CNC(=O)C(CC(C)C)NS(=O)(=O)c2ccc3c(c2)oc(=O)n3C)c1 (configuration not stated),inactive: -21.9%
9,Cc1c2cnn(CC(=O)N3CCCCC3)c(=O)c2c(C)n1Cc1ccc(F)cc1,inactive: 0.191%
10,COc1ccc(-c2noc(N3CCC(C(=O)Nc4ccc(F)cc4Cl)CC3)n2)cc1,inactive: -85.8%
11,CCN(C(=O)CCS(=O)(=O)c1cc2[nH]c(=O)c(=O)[nH]c2cc1C)c1ccccc1,inactive: -7.74%
12,Cc1ccc2c(c1)C(=O)OC(C(=O)Nc1ncc(Cc3ccc(C(C)C)cc3)s1)C2 (configuration not stated),inactive: 0.0539%
13,O=C(NCCc1ccc(F)cc1)C(=O)NCC(c1cccs1)S(=O)(=O)c1ccc(F)cc1 (configuration not stated),inactive: -42.8%
14,Cc1ccc2sc(N3CCN(C(=O)CCS(=O)(=O)c4ccc(Cl)cc4)CC3)nc2c1C,inactive: -0.215%
15,Cc1ccc(-c2cn3nc(N4CCCC(C(=O)Nc5ccc(F)cc5)C4)sc3n2)cc1 (configuration not stated),inactive: -44%
16,CCCN(CCC)C(=O)Cn1c(=O)n(-c2cccc(OC)c2)c(=O)c2c(C)c(C(=O)N(C)C)sc21,inactive: 7.28%
17,Cc1ccc(N(CC(=O)N2CCN(c3ccc(Cl)cc3)CC2)S(=O)(=O)c2c(C)nn(C)c2C)cc1,inactive: -9.7%
18,CCC(Sc1nc2ncccc2[nH]1)C(=O)Nc1cccc(OC)c1 (configuration not stated),inactive: -11.4%
19,COC(=O)c1c(NC(=O)CCCOc2ccc(C(C)(C)C)cc2)sc2c1C(C(=O)OC)CC2 (configuration not stated),inactive: -43.7%
20,COc1ccc(N2CCN(C(=O)CCn3c(=O)[nH]c4cc(OC)c(OC)cc4c3=O)CC2)cc1,inactive: 1.61%
21,CCc1ccc(CNC(=O)C(C)n2ccc3cc(S(=O)(=O)N4CCCCCC4)ccc32)cc1 (configuration not stated),inactive: 0%
22,Cc1cccc(NC(=O)CCS(=O)(=O)c2cccc3nsnc23)c1C,inactive: -8.85%
23,COc1cccc(C(=O)NCCc2csc(-c3ccc(Cl)cc3)n2)c1,inactive: -25.6%
